Assays:
[1] = Stability of flagranone A; assay type: physicochemical; settings: sealed ampoules in the dark at −80 C., but not −20 C.
[2] = Calculated flagranone A intake by treated animals
[3] = Analysis of flagranone A in TGAI batches (HPLC with UV detection)

## CC(=O)OCC1=CC(=O)C2(C(/C=C(C)/C=C/C=C(\C)CCC=C(C)C)OC(C)=O)OC2C1=O (stereo not drawn) [flagranone A]
[1]
  Storage stability of pure material: stabilised by storage
[2]
  Animal exposure (below level above which residue studies are required): < 4 μg/kg BW/day
[3]
  Level of flagranone A present: too low to be of toxicological concern

Source: patent publication US20190167739A1, “COMPOSITION COMPRISING DUDDINGTONIA FLAGRANS” (INTERNATIONAL ANIMAL HEALTH PRODUCTS PTY LTD, priority 2016, published 2019)
